# Measured values published in the supplement of paper PMC8728848.
# Some of the results follow.
# B1: LTL (Lotus tetragonolobus), P19664 (protein)
# chain: VSFNYTEFKDDGSLILQGDAKIWTDGRLAMPTDPLVNNPKTTRSAGRALYATPVPIWDSATGNVASFVTSFNFLFVIRELKYTPTDGLVFFLAPVGTEIPSGSTGGFLGIFDGSNGFNQFVAVEFDSYHNIWDPKSLRSSHVGIDVNSIMSLKAVNWNRVSGSLEKATIIYDSQTNILSVVMTSQNGQITTIYGTIDLKTVLPEKVSVGFSATTGNPEREKHDIYSWSFTSTLKEPEEQA
# Columns and labels:
# Assay in all cases: glycan array binding signal (z-score within array); higher = stronger binding
# Conditions in all cases: glycan notation: IUPAC condensed, linker removed
# [1] = target: Gal3S(b1-4)[Fuc(a1-3)]Glc6S
# Procedure, shortened: (§1)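 Glycan array binding is given as a within-array Z-score, which can be read as non-binding when negative. The arrays, 3228 of them, came from the Consortium for Functional Glycomics database and were retained only where the protein sequence was available. Z-scores were averaged across arrays of the same protein sequence at different concentrations or buffers and across linkers.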
# [2] = target: Gal3S(b1-4)[Fuc(a1-3)]GlcNAc
# Procedure, shortened: as §1
# [3] = target: Gal3S(b1-4)[Fuc(a1-3)]GlcNAc6S
# Procedure, shortened: as §1
# [4] = target: Gal3S4S(b1-4)GlcNAc
# Procedure, shortened: as §1
# [5] = target: Gal3S6S(b1-4)GlcNAc
# Procedure, shortened: as §1
# [6] = target: Gal3S6S(b1-4)GlcNAc6S
# Procedure, shortened: as §1
# [7] = target: Gal4S(b1-4)GlcNAc
# Procedure, shortened: as §1
# [8] = target: Gal4S6S(b1-4)GlcNAc
# Procedure, shortened: as §1
# [9] = target: Gal6P(b1-4)GlcNAc
# Procedure, shortened: as §1
# [10] = target: Gal6S(b1-3)GlcNAc
# Procedure, shortened: as §1
# [11] = target: Gal6S(b1-3)GlcNAc6S
# Procedure, shortened: as §1
# [12] = target: Gal6S(b1-4)Glc
# Procedure, shortened: as §1
# [13] = target: Gal6S(b1-4)Glc6S
# Procedure, shortened: as §1
# [14] = target: Gal6S(b1-4)GlcNAc
# Procedure, shortened: as §1
# [15] = target: Gal6S(b1-4)GlcNAc6S
# Procedure, shortened: as §1
# [16] = target: GalNAc(a1-3)Gal
# Procedure, shortened: as §1
# [17] = target: GalNAc(a1-3)GalNAc
# Procedure, shortened: as §1
# [18] = target: GalNAc(a1-3)GalNAc(a1-3)Gal(a1-4)Gal(b1-4)GlcNAc
# Procedure, shortened: as §1
# [19] = target: GalNAc(a1-3)GalNAc(b1-3)Gal(a1-4)Gal(b1-4)Glc
# Procedure, shortened: as §1
# [20] = target: GalNAc(b1-3)Gal
# Procedure, shortened: as §1
# [21] = target: GalNAc(b1-3)Gal(a1-4)Gal(b1-4)GlcNAc
# Procedure, shortened: as §1
# [22] = target: GalNAc(b1-3)Gal(a1-4)Gal(b1-4)GlcNAc(b1-3)Gal(b1-4)Glc
# Procedure, shortened: as §1
# [23] = target: GalNAc(b1-3)Gal(a1-6)Gal(b1-4)Glc
# Procedure, shortened: as §1
# [24] = target: GalNAc(b1-3)GalNAc
# Procedure, shortened: as §1
# [25] = target: GalNAc(b1-3)GlcNAc
# Procedure, shortened: as §1
# [26] = target: GalNAc(b1-4)Gal(b1-4)Glc
# Procedure, shortened: as §1
# [27] = target: GalNAc(b1-4)GlcNAc
# Procedure, shortened: as §1
# [28] = target: GalNAc(b1-4)GlcNAc(b1-2)Man
# Procedure, shortened: as §1
# [29] = target: GalNAc(b1-4)GlcNAc(b1-2)Man(a1-3)[GalNAc(b1-4)GlcNAc(b1-2)Man(a1-6)]Man(b1-4)GlcNAc(b1-4)GlcNAc
# Procedure, shortened: as §1
# [30] = target: GalNAc(b1-4)GlcNAc(b1-3)GalNAc(b1-4)GlcNAc
# Procedure, shortened: as §1
# [31] = target: GalNAc(b1-4)GlcNAc6S
# Procedure, shortened: as §1
# [32] = target: GalNAc(b1-6)GalNAc
# Procedure, shortened: as §1
# [33] = target: GalNAc3S(b1-4)GlcNAc
# Procedure, shortened: as §1
# [34] = target: GalNAc3S(b1-4)GlcNAc3S
# Procedure, shortened: as §1
# [35] = target: GalNAc3S(b1-4)[Fuc(a1-3)]GlcNAc
# Procedure, shortened: as §1
# [36] = target: GalNAc4S6S(b1-4)GlcNAc
# Procedure, shortened: as §1
# [37] = target: GalNAc6S(b1-4)GlcNAc
# Procedure, shortened: as §1
# [38] = target: Glc(a1-4)Glc
# Procedure, shortened: as §1
# [39] = target: Glc(a1-4)Glc(a1-4)Glc(a1-4)Glc
# Procedure, shortened: as §1
# [40] = target: Glc(a1-6)Glc(a1-6)Glc
# Procedure, shortened: as §1
# [41] = target: Glc(a1-6)Glc(a1-6)Glc(a1-6)Glc
# Procedure, shortened: as §1
# [42] = target: Glc(b1-4)Glc
# Procedure, shortened: as §1
# [43] = target: Glc(b1-6)Glc
# Procedure, shortened: as §1
# [44] = target: GlcA(b1-3)Gal
# Procedure, shortened: as §1
# [45] = target: GlcA(b1-3)GlcNAc
# Procedure, shortened: as §1
binder,measurement,setting,value
B1,glycan array binding signal (z-score),[1],0.78
same,glycan array binding signal (z-score),[2],-0.09
same,glycan array binding signal (z-score),[3],-0.287
same,glycan array binding signal (z-score),[4],-0.298
same,glycan array binding signal (z-score),[5],0.068
same,glycan array binding signal (z-score),[6],-0.16
same,glycan array binding signal (z-score),[7],-0.271
same,glycan array binding signal (z-score),[8],-0.151
same,glycan array binding signal (z-score),[9],-0.53
same,glycan array binding signal (z-score),[10],-0.381
same,glycan array binding signal (z-score),[11],-0.294
same,glycan array binding signal (z-score),[12],-0.131
same,glycan array binding signal (z-score),[13],-0.051
same,glycan array binding signal (z-score),[14],-0.022
same,glycan array binding signal (z-score),[15],-0.195
same,glycan array binding signal (z-score),[16],-0.206
same,glycan array binding signal (z-score),[17],-0.238
same,glycan array binding signal (z-score),[18],-0.224
same,glycan array binding signal (z-score),[19],-0.274
same,glycan array binding signal (z-score),[20],-0.283
same,glycan array binding signal (z-score),[21],-0.186
same,glycan array binding signal (z-score),[22],-0.168
same,glycan array binding signal (z-score),[23],-0.228
same,glycan array binding signal (z-score),[24],-0.117
same,glycan array binding signal (z-score),[25],-0.05
same,glycan array binding signal (z-score),[26],-0.273
same,glycan array binding signal (z-score),[27],-0.221
same,glycan array binding signal (z-score),[28],-0.392
same,glycan array binding signal (z-score),[29],1.48
same,glycan array binding signal (z-score),[30],-0.116
same,glycan array binding signal (z-score),[31],-0.34
same,glycan array binding signal (z-score),[32],-0.28
same,glycan array binding signal (z-score),[33],-0.329
same,glycan array binding signal (z-score),[34],-0.329
same,glycan array binding signal (z-score),[35],-0.138
same,glycan array binding signal (z-score),[36],-0.294
same,glycan array binding signal (z-score),[37],-0.348
same,glycan array binding signal (z-score),[38],-0.24
same,glycan array binding signal (z-score),[39],-0.177
same,glycan array binding signal (z-score),[40],-0.181
same,glycan array binding signal (z-score),[41],0.076
same,glycan array binding signal (z-score),[42],-0.263
same,glycan array binding signal (z-score),[43],-0.189
same,glycan array binding signal (z-score),[44],-0.018
same,glycan array binding signal (z-score),[45],-0.17
